# According to patent publication US20220089722A1 (NANTONG YICHEN BIOPHARMA, published 2022):
# T1: CLL-1 on HL-60 cells (UniProt Q5QGZ9 1-265, limits assumed)
# T1 sequence (looked up): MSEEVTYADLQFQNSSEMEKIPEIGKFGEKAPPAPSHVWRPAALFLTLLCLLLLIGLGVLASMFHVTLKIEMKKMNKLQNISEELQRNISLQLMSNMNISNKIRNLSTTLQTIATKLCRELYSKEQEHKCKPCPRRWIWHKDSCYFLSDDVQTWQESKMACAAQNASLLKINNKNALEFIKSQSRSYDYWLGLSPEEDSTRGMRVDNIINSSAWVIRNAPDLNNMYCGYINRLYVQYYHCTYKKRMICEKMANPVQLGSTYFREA
# B1: IgFD-23(anti-CD3/CLL-1) (bispecific antibody, human IgG1, kappa)
# chain 1: EVQLVESGGGLVQPGGSLRLSCAASGFTFNTYAMNWVRQAPGKGLEWVARIRSKYNNYATYYADSVKDRFTISRDDSKNTLYLQMNSLRAEDTAVYYCVRHGNFGNSYVSWFAYWGQGTLVTVSSASTKGPSVFPLAPSSKSTSGGTAALGCLVKDYFPEPVTVSWNSGALTSGVHTFPAVLQSSGLYSLSSVVTVPSSSLGTQTYICNVNHKPSNTKVDKKV[letters of human IgG1 Fc with changes not shown]
# chain 2: QAVVTQEPSLTVSPGGTVTLTCRSSTGAVTTSNYANWVQQKPDHLFRGLIGGTNKRAPGTPARFSGSLLGDKAALTISGAQPEDEAEYYCALWYSNLWVFGGGTKLTVLKRTVAAPSVFIFPPSDEQLKSGTASVVCLLNNFYPREAKVQWKVDNALQSGNSQESVTEQDSKDSTYSLSSTLTLSKADYEKHKVYACEVTHQGLSSPVTKSFNRGE[letters of human IgG1 Fc with changes not shown]GGSGGSGGGGSGGGGSEVQLVESGGGLVKPGGSLRLSCAVSGFSFSGNSMSWVRQAPGKGLEWVSYIDRDGSHIFYTDSVRGRFTISRDDAKNSLYLQMNSLRTEDTAVYYCVAEIGARDFLHWGQGTLVTVSSGGGGSGGGGSGGGGSDIQMTQSPSSLSASVGDRVTITCRASQSISSYLNWYQQKPGKAPKLLIYGASSLQSGVPSRFSGSGSGTDFTLTISSLQPEDFATYYCQQYNSYWTFGQGTKVDIK
# B2: IgFD-18(anti-CD3/EGFR) (bispecific antibody, human IgG1, kappa)
# chain 1: DIQMTQSPSSLSASVGDRVTITCQASQDISNYLNWYQQKPGKAPKLLIYDASNLETGVPSRFSGSGSGTDFTFTISSLQPEDIATYFCQHFDHLPLAFGGGTKVEIKGGGGSGGGGSGGGGSQVQLQESGPGLVKPSETLSLTCTVSGGSVSSGDYYWTWIRQSPGKGLEWIGHIYYSGNTNYNPSLKSRLTISIDTSKTQFSLKLSSVTAADTAIYYCVRDRVTGAFDIWGQGTMVTVSSGGSGGSGGGGSGGGGSEVQLVESGGGLVQPGGSLRLSCAASGFTFNTYAMNWVRQAPGKGLEWVARIRSKYNNYATYYADSVKDRFTISRDDSKNTLYLQMNSLRAEDTAVYYCVRHGNFGNSYVSWFAYWGQGTLVTVSSASTKGPSVFPLAPSSKSTSGGTAALGCLVKDYFPEPVTVSWNSGALTSGVHTFPAVLQSSGLYSLSSVVTVPSSSLGTQTYICNVNHKPSNTKVDKKV[letters of human IgG1 Fc with changes not shown]
# chain 2: QAVVTQEPSLTVSPGGTVTLTCRSSTGAVTTSNYANWVQQKPDHLFRGLIGGTNKRAPGTPARFSGSLLGDKAALTISGAQPEDEAEYYCALWYSNLWVFGGGTKLTVLKRTVAAPSVFIFPPSDEQLKSGTASVVCLLNNFYPREAKVQWKVDNALQSGNSQESVTEQDSKDSTYSLSSTLTLSKADYEKHKVYACEVTHQGLSSPVTKSFNRGE[letters of human IgG1 Fc with changes not shown]
# B3: IgFD-19(anti-CD3/EGFR) (bispecific antibody, human IgG1, kappa)
# chain 1: EVQLVESGGGLVQPGGSLRLSCAASGFTFNTYAMNWVRQAPGKGLEWVARIRSKYNNYATYYADSVKDRFTISRDDSKNTLYLQMNSLRAEDTAVYYCVRHGNFGNSYVSWFAYWGQGTLVTVSSASTKGPSVFPLAPSSKSTSGGTAALGCLVKDYFPEPVTVSWNSGALTSGVHTFPAVLQSSGLYSLSSVVTVPSSSLGTQTYICNVNHKPSNTKVDKKV[letters of human IgG1 Fc with changes not shown]
# chain 2: DIQMTQSPSSLSASVGDRVTITCQASQDISNYLNWYQQKPGKAPKLLIYDASNLETGVPSRFSGSGSGTDFTFTISSLQPEDIATYFCQHFDHLPLAFGGGTKVEIKGGGGSGGGGSGGGGSQVQLQESGPGLVKPSETLSLTCTVSGGSVSSGDYYWTWIRQSPGKGLEWIGHIYYSGNTNYNPSLKSRLTISIDTSKTQFSLKLSSVTAADTAIYYCVRDRVTGAFDIWGQGTMVTVSSGGSGGSGGGGSGGGGSQAVVTQEPSLTVSPGGTVTLTCRSSTGAVTTSNYANWVQQKPDHLFRGLIGGTNKRAPGTPARFSGSLLGDKAALTISGAQPEDEAEYYCALWYSNLWVFGGGTKLTVLKRTVAAPSVFIFPPSDEQLKSGTASVVCLLNNFYPREAKVQWKVDNALQSGNSQESVTEQDSKDSTYSLSSTLTLSKADYEKHKVYACEVTHQGLSSPVTKSFNRGE[letters of human IgG1 Fc with changes not shown]
# B4: IgFD-11(anti-CD3/EGFR) (bispecific antibody, human IgG1, kappa)
# chain 1: EVQLVESGGGLVQPGGSLRLSCAASGFTFNTYAMNWVRQAPGKGLEWVARIRSKYNNYATYYADSVKDRFTISRDDSKNTLYLQMNSLRAEDTAVYYCVRHGNFGNSYVSWFAYWGQGTLVTVSSASTKGPSVFPLAPSSKSTSGGTAALGCLVKDYFPEPVTVSWNSGALTSGVHTFPAVLQSSGLYSLSSVVTVPSSSLGTQTYICNVNHKPSNTKVDKKV[letters of human IgG1 Fc with changes not shown]
# chain 2: QAVVTQEPSLTVSPGGTVTLTCRSSTGAVTTSNYANWVQQKPDHLFRGLIGGTNKRAPGTPARFSGSLLGDKAALTISGAQPEDEAEYYCALWYSNLWVFGGGTKLTVLKRTVAAPSVFIFPPSDEQLKSGTASVVCLLNNFYPREAKVQWKVDNALQSGNSQESVTEQDSKDSTYSLSSTLTLSKADYEKHKVYACEVTHQGLSSPVTKSFNRGE[letters of human IgG1 Fc with changes not shown]GGSGGSGGGGSGGGGSDIQMTQSPSSLSASVGDRVTITCQASQDISNYLNWYQQKPGKAPKLLIYDASNLETGVPSRFSGSGSGTDFTFTISSLQPEDIATYFCQHFDHLPLAFGGGTKVEIKGGGGSGGGGSGGGGSQVQLQESGPGLVKPSETLSLTCTVSGGSVSSGDYYWTWIRQSPGKGLEWIGHIYYSGNTNYNPSLKSRLTISIDTSKTQFSLKLSSVTAADTAIYYCVRDRVTGAFDIWGQGTMVTVSS
# How the values were obtained:
# CLL-1 on HL-60 cells = target: T1, CLL-1 on HL-60 cells; experiment: cell-based or functional assay
# EGFR on F98-EGFR cells [1] = target: T2, EGFR on F98-EGFR cells (UniProt P00533); experiment: cell-based or functional assay
# EGFR on F98-EGFR cells [2] = target: T2, EGFR on F98-EGFR cells; experiment: flow cytometry on F98-EGFR cells
# Procedure: F98-EGFR cells (a DMEM containing 10% FBS, 200 μg/ml G418) were cultured. 2×10⁵ cells were washed by precooled PBS for 3 times, and blocked by 2% FBS (soluble to PBS). IgFD-8, IgFD-9, IgFD-10, IgFD-11, IgFD-18, IgFD-19, IgFD-25, IgFD-26 or IgFD-31 (aEGFR expressed in a laboratory as a control) was added and incubated for 2 h at 4° C. (cells were gently mixed during incubation), unbounded antibodies were washed by 2% FBS (soluble to PBS), and then the remaining cells were incubated by FITC anti-human IgGFc(KPL, Inc., MD) for 1 h at 4° C., and washed by 2% FBS (soluble to PBS) for flow cytometry analysis. As shown in FIG. 7 and Table 4, the anti-CD3/anti-EGFR heterodimers in different forms of fusion could bind to EGFR on F98-EGFR cells, and there was no significant difference in the binding capacity of different heterodimers to F98-EGFR.
# [3] = target: T3, CD3 on T cells (Jurkat T cells; PBMC-T cells); experiment: flow cytometry on activated T cells from PBMCs (PBMC-T)
# T3 construct: whole, on cells; the target is inferred from the anti-CD3 arm of the constructs
# Procedure: Peripheral blood of healthy volunteers was collected, and Ficoll-Hypaque(GE Healthcare) was used to separate peripheral blood monouclear cells (PBMCs) via gradient centrifugation. The purified PBMCs were resuspended in RPMI 1640/10% FBS complete medium. PBMCs were incubated with immobilized anti-CD3 (Clone OKT3, eBiosciences), and 2 μg mL anti-CD28 (Clone CloneCD28.2, eBiosciences) at 37° C. for 48 h. The activated T cells were then expanded for 10d with 20 U/ml IL2(R&D Systems). 2×10⁵ cells were washed by precooled PBS for 3 times, and blocked by 2% FBS (in PBS), and then incubated with IgFD-8, IgFD-18 or IgFD-19 at different concentrations (25 nM, 7.5 nM, 2.5 nM, 0.75 nM or 0.25 nM) for 1 h at 4° C. (cells were gently mixed during incubation). Unbounded antibodies were washed by 2% FBS (in PBS), and the cells were incubated with FITC anti-human IgGFc (KPL, Inc., MD) for 1 h at 4° C. (cells were gently mixed during incubation). The cells were subjected for flow cytometry analysis after the unbounded antibodies were washed by 2% FBS (in PBS).
# [4] = target: T4, hEGFR-6-his (SinoBiological) (human, UniProt P00533 fragment); experiment: ELISA, hEGFR-6-his coated 100 ng/well, anti-human IgG Fc-HRP
# T4 construct: Bought protein coated on the ELISA plate; also called human EGFR
# Procedure: hEGFR-6-his (SinoBiological) (100 ng/well) was coated in a 96-well plate, and incubated overnight at 4° C. After blocked by PBST (0.5% Tween-20 in PBS) containing 2% skim milk powder for 1 h at room temperature, the gradiently diluted heterodimeric antibodies IgFD-11, IgFD-24, IgFD-25, IgFD-26, IgFD-31, and anti-EGFR were added for incubation for 2 h at room temperature, respectively. After washing with PBST containing 2% skim milk powder for 4-5 times, an Anti-Human IgG (FC) Antibody-HRP (KPL) secondary antibody was added for incubation for 1 h at room temperature, and then washed by PBST containing 2% skim milk powder for 4-5 times, reading was performed at 650 nm after color development with a TMB colour reagent (BioLegend, Cat. 421101).
# T3 sequence (P07766 23-207): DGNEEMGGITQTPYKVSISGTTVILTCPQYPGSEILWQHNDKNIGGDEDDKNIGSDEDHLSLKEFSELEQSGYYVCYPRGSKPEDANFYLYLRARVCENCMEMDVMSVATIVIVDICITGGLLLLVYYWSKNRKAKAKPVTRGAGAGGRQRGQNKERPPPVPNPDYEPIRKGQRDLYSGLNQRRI
Binder,"Promotion for the specific killing effect of PBMCs on target cells by heterodimers (EC50, pM); HL-60 cells, flow cytometry (CLL-1 on HL-60 cells) [pM]","Promotion for the specific killing effect of PBMCs on target cells by heterodimers (EC50, pM); F98-EGFR cells, LDH assay (EGFR on F98-EGFR cells [1]) [pM]",Kd (EGFR on F98-EGFR cells [2]) [nM],Kd [3] [nM],binding result [4]
B1,60.9,–,–,–,–
B2,–,2600,0.168,29.1,–
B3,–,975,0.771,26.6,–
B4,–,–,–,–,binds
